{"source": "PubChem BioAssay AID1508642", "about": "(National Center for Advancing Translational Sciences (NCATS), 2021)", "note": "Hit rate of the full screen: of about 43,000 compounds, about 200 (0.47%) were called active. Roughly 12% stayed inconclusive and do not appear here. The call rests on the fitted dose curve; in most records, active means well fitted cell-killing curve with a large enough effect; inconclusive means small, poorly fitted or top-dose-only effect, or effect the other way; inactive means flat fitted curve, though single readings scatter. This is one part of the list. On the % scale 0 is the no-effect control and ±100 the full control effect.", "data": [{"assay": "Cell viability qHTS assay in S16 Pmp22-F2sN cells; further: nearly all actives have a fitted effect of over 65% in size", "details": "S16 Pmp22-F2sN Schwann cells (luciferase reporters placed in the Pmp22 gene) viability, CellTiter-Glo, 24 h; series mostly up to 57.5 µM; activity change, negative = cytotoxicity: at the top concentration", "summary_of_the_method": "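Rat S16 Schwann reporter line, 24 h treatment with library compounds delivered at 23 nL per well. Cell viability by CellTiter-Glo luminescence.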", "values": [{"smiles": "CCOc1ccc(CCNC(=O)c2ccc(-c3nc(CSc4ccccc4)c(C)o3)cc2)cc1", "activity change, negative = cytotoxicity": "inactive: 2.66%"}, {"smiles": "COc1ccc(OCC(=O)N(Cc2ccc(C)o2)C2CCS(=O)(=O)C2)cc1", "note": "(stereo not given)", "activity change, negative = cytotoxicity": "inactive: 13%"}, {"smiles": "Cc1ccc(Cl)cc1NC(=O)CSCc1cnn(-c2ccccc2)c1-n1cccc1", "activity change, negative = cytotoxicity": "inactive: -15.4%"}, {"smiles": "O=C(Cn1c(=O)ccc2cc(S(=O)(=O)N3CCCC3)ccc21)Nc1ccc(Cl)cc1", "activity change, negative = cytotoxicity": "inactive: 11%"}, {"smiles": "Cc1cccc(NS(=O)(=O)c2ccc3c(c2)CCN3C(=O)C2CC2)c1C", "activity change, negative = cytotoxicity": "inactive: 1.81%"}, {"smiles": "CCN(C(=O)c1cn(C)c(=O)c2ccccc12)c1cccc(C)c1", "activity change, negative = cytotoxicity": "inactive: 2.09%"}, {"smiles": "COc1ccccc1NC(=O)CN1C(=O)CCSc2ccccc21", "activity change, negative = cytotoxicity": "inactive: 11.8%"}, {"smiles": "COc1ccc(CNC(=O)CSc2ncc3c(n2)-c2cc(Cl)ccc2N(C)S3(=O)=O)cc1", "activity change, negative = cytotoxicity": "inactive: 15.2%"}, {"smiles": "CCOC(=O)Cn1c(-c2cccs2)cc2cc(Cl)ccc21", "activity change, negative = cytotoxicity": "inactive: 0.949%"}, {"smiles": "COC(=O)c1c(NC(=O)/C=C/c2ccc(OC)cc2)sc2c1CCC2", "activity change, negative = cytotoxicity": "inactive: 19.6%"}, {"smiles": "COc1ccc(CCNC(=O)c2ccc3c(c2)N(Cc2cccc(Cl)c2)C(=O)c2ccccc2S3=O)cc1OC", "note": "(stereo not given)", "activity change, negative = cytotoxicity": "inactive: -1.8%"}, {"smiles": "O=C(Cn1c(=O)n(-c2ccccc2)c(=O)c2ccc(C(=O)NCc3ccc4c(c3)OCO4)cc21)Nc1ccc(F)c(Cl)c1", "activity change, negative = cytotoxicity": "inactive: -10.2%"}, {"smiles": "COc1ccc(N(C(=O)c2cccc(C)c2)S(=O)(=O)c2ccc3c(c2)n(C)c(=O)n3C)cc1", "activity change, negative = cytotoxicity": "inactive: -6.51%"}, {"smiles": "CCOC(=O)c1cc(OC(=O)c2ccccc2OC)n(-c2ccccc2)n1", "activity change, negative = cytotoxicity": "inactive: -0.895%"}, {"smiles": "CC(=O)N1CCc2cc(S(=O)(=O)NC(Cc3ccccc3)C(=O)Nc3ccc(C)cc3C)ccc21", "note": "(stereo not given)", "activity change, negative = cytotoxicity": "inactive: 6.56%"}, {"smiles": "O=C(CSc1nc2ccsc2c(=O)n1Cc1ccccc1F)NCc1ccccc1Cl", "activity change, negative = cytotoxicity": "inactive: -16.2%"}, {"smiles": "Cc1ccc(C)c(Cn2c(=O)n(-c3ccc(F)cc3)c(=O)c3sc4ccccc4c32)c1", "activity change, negative = cytotoxicity": "inactive: 3.27%"}, {"smiles": "Clc1cccc(-n2ncc3c(Nc4ccc5c(c4)OCCO5)ncnc32)c1", "activity change, negative = cytotoxicity": "inactive: -4.23%"}, {"smiles": "COc1ccc(N2CCN(C(=O)Cn3c(-c4cccs4)cc4ccccc43)CC2)cc1", "activity change, negative = cytotoxicity": "inactive: 13%"}, {"smiles": "O=c1cc2nc(-c3ccccc3)nc(SCCOc3ccc(Cl)cc3)n2[nH]1", "activity change, negative = cytotoxicity": "inactive: -1.67%"}, {"smiles": "Cc1nn2c(-c3ccco3)ccnc2c1-c1ccc(Cl)cc1", "activity change, negative = cytotoxicity": "inactive: 12.8%"}, {"smiles": "CCOC(=O)c1cnc2c(C)cc(C)cc2c1Nc1ccccc1OCC", "activity change, negative = cytotoxicity": "inactive: 19.5%"}, {"smiles": "COc1ccc(C(=O)Nc2ccc3oc(-c4cc(Cl)ccc4Cl)nc3c2)cc1Br", "activity change, negative = cytotoxicity": "inactive: 29.9%"}, {"smiles": "O=C(Nc1cccc(Cl)c1Cl)c1cc(S(=O)(=O)N2CCCc3ccccc32)ccc1F", "activity change, negative = cytotoxicity": "inactive: -0.583%"}, {"smiles": "COc1cc(OC)c(N(C)C(=O)CSc2c3c(nc4ccc(Cl)cc24)CCCC3)cc1Cl", "activity change, negative = cytotoxicity": "inactive: -3.48%"}, {"smiles": "CCc1ccccc1NC(=O)Nc1cc(C(=O)NCc2ccccc2OC)ccc1N1CCCC1", "activity change, negative = cytotoxicity": "inactive: -9.52%"}, {"smiles": "CCCN(C(=O)Cn1ncc2c([nH]c3ccccc32)c1=O)c1ccc(F)cc1", "activity change, negative = cytotoxicity": "inactive: 0.35%"}, {"smiles": "COc1ccc2c(c1)c(=O)c(S(=O)(=O)c1ccccc1)cn2CC(=O)Nc1ccc2c(c1)OCO2", "activity change, negative = cytotoxicity": "inactive: -0.0218%"}, {"smiles": "CCOC(=O)C1CCCN(C(=O)c2ccc3c(c2)N(Cc2ccccc2F)C(=O)c2ccccc2S3=O)C1", "note": "(stereo not given)", "activity change, negative = cytotoxicity": "inactive: 13.5%"}, {"smiles": "COc1ccc(CCNC(=O)CCn2c(=O)c3ccccc3n(CC(=O)Nc3cc(Cl)ccc3C)c2=O)cc1OC", "activity change, negative = cytotoxicity": "inactive: 1.5%"}, {"smiles": "CC(=O)c1cccc(NC(=O)CCCSc2nc(-c3ccco3)cc(C(F)(F)F)n2)c1", "activity change, negative = cytotoxicity": "inactive: -19.6%"}, {"smiles": "Cc1ccc(NC(=O)c2ccc(CNS(=O)(=O)c3ccc4c(c3)C(C)(C)C(=O)N4C)cc2)cc1", "activity change, negative = cytotoxicity": "inactive: 1.41%"}, {"smiles": "COc1cccc(-c2nc(SCC(=O)NCC3CCCO3)c(-c3ccc(Cl)cc3)[nH]2)c1", "note": "(stereo not given)", "activity change, negative = cytotoxicity": "inactive: -24.5%"}, {"smiles": "CN(C)CCNC(=O)C(=O)NCC(c1cccnc1)N1CCN(c2ccccc2)CC1", "note": "(stereo not given)", "activity change, negative = cytotoxicity": "inactive: 3.28%"}, {"smiles": "COc1ccc(NC(=O)CN2C(=O)C(c3ccc(C)cc3)=NC23CCCCCC3)cc1Cl", "activity change, negative = cytotoxicity": "inactive: -9.63%"}, {"smiles": "Cc1noc(-c2ccc(-c3noc(-c4cccc(Cl)c4)n3)cc2)n1", "activity change, negative = cytotoxicity": "inactive: -2.07%"}, {"smiles": "Cc1ccc(S(=O)(=O)C(CNC(=O)c2ccc(C(F)(F)F)cc2)c2ccco2)cc1", "note": "(stereo not given)", "activity change, negative = cytotoxicity": "inactive: -13.3%"}, {"smiles": "CCc1ccc2occ(CC(=O)Nc3sc4c(c3C(=O)NCCOC)CCCC4)c2c1", "activity change, negative = cytotoxicity": "inactive: -1.83%"}, {"smiles": "Cc1nc2nc(SCC(=O)NC3CCC(C)CC3)nn2c(C)c1Cc1ccccc1Cl", "note": "(stereo not given)", "activity change, negative = cytotoxicity": "inactive: -3.15%"}, {"smiles": "Cn1cc(S(=O)(=O)N2CCCCC2)cc1C(=O)Nc1ccc(OC(F)(F)F)cc1", "activity change, negative = cytotoxicity": "inactive: 8.1%"}, {"smiles": "O=C(Cn1cc(S(=O)(=O)c2ccccc2)c(=O)c2cc3c(cc21)OCO3)Nc1ccccc1", "activity change, negative = cytotoxicity": "inactive: 1.82%"}, {"smiles": "O=C(NCCCc1ccccc1)c1nn(-c2ccccc2)nc1CO", "activity change, negative = cytotoxicity": "inactive: -3.88%"}, {"smiles": "Cc1ccc(S(=O)(=O)n2nc(-c3ccco3)nc2NCc2ccc(N(C)C)cc2)cc1", "activity change, negative = cytotoxicity": "inactive: -4.82%"}, {"smiles": "CCOC(=O)c1ccc(NC(=O)CCC(=O)N2CCSc3ccccc32)cc1", "activity change, negative = cytotoxicity": "inactive: 2.69%"}, {"smiles": "CCc1ccc2oc(-c3ccc(C)c(NC(=O)c4ccc(C#N)cc4F)c3)nc2c1", "activity change, negative = cytotoxicity": "inactive: 0.719%"}, {"smiles": "CCn1cc2nc(SCc3cccc(C)c3)n(CCc3ccccc3)c(=O)c2n1", "activity change, negative = cytotoxicity": "inactive: 6.6%"}, {"smiles": "Cc1ccccc1NC(=O)Cn1cc(S(=O)(=O)N2CCCC2)c(S(=O)(=O)N2CCCC2)c1", "activity change, negative = cytotoxicity": "inactive: -0.924%"}, {"smiles": "CC1=C(C(=O)Nc2ccccc2)C(c2ccccn2)n2nc(SCc3ccccc3Cl)nc2N1", "note": "(stereo not given)", "activity change, negative = cytotoxicity": "inactive: 16.6%"}, {"smiles": "CCC(=O)Nc1cccc(OCc2cc(=O)n3cc(C)ccc3n2)c1", "activity change, negative = cytotoxicity": "inactive: -1.24%"}, {"smiles": "COC(=O)c1ccc(Oc2nc3c(c(=O)n(C)c(=O)n3C)n2Cc2ccc(Cl)c(Cl)c2)cc1", "activity change, negative = cytotoxicity": "inactive: 4.1%"}, {"smiles": "CCc1ccc(NS(=O)(=O)c2c(-c3ccccc3)csc2C(=O)OC)cc1", "activity change, negative = cytotoxicity": "inactive: -0.323%"}, {"smiles": "COc1ccccc1N(CC(=O)Nc1cc(C)cc(C)c1)S(C)(=O)=O", "activity change, negative = cytotoxicity": "inactive: 7.05%"}, {"smiles": "O=C(Nc1nnc(S(=O)(=O)N2CCCCCC2)s1)c1ccccc1", "activity change, negative = cytotoxicity": "inactive: 2.46%"}, {"smiles": "CN(Cc1ccco1)S(=O)(=O)c1nnc(NC(=O)c2ccccc2)s1", "activity change, negative = cytotoxicity": "inactive: 0.116%"}, {"smiles": "CCc1cccc(NC(=O)Cn2ccn3nc(-c4ccc(OC)c(OC)c4)cc3c2=O)c1", "activity change, negative = cytotoxicity": "inactive: -1.13%"}, {"smiles": "COc1ccc(S(=O)(=O)N(CC(=O)Nc2ccc3c(c2)OCO3)c2ccc(C)cc2)cc1", "activity change, negative = cytotoxicity": "inactive: 15.7%"}, {"smiles": "COc1cc(OC)cc(C(=O)Nc2ccc3c(c2)n(C)c(=O)c(=O)n3C)c1", "activity change, negative = cytotoxicity": "inactive: 10.9%"}, {"smiles": "Cc1ccc(OCc2cc(=O)n3c4c(sc3n2)CCCC4)cc1C", "activity change, negative = cytotoxicity": "inactive: 12.3%"}, {"smiles": "COc1ccc(NC(=O)c2oc3ccccc3c2NC(=O)C23CC4CC(CC(C4)C2)C3)cc1", "activity change, negative = cytotoxicity": "inactive: 0.235%"}, {"smiles": "CCOc1ccccc1CNC(=O)c1ccc2c(c1)nc1n2CCC(C)C1", "note": "(stereo not given)", "activity change, negative = cytotoxicity": "inactive: 2.79%"}]}]}
